Reference: the supplement of paper PMC10369915
The list shows a part of the results. Rule as the data show it: active = 3.2 or more and inactive = the rest. Only a few entries rise above the background.

What was measured:
Test in all cases: enrichment score (SH2-bound / input frequency) (ratio); bacterial display of known human phosphotyrosine sites (pTyr-Var adds point mutants) read by sequencing; higher = stronger binding; tyrosines were phosphorylated by kinases first
Settings in all cases: peptide library: pTyr-Var
SHP2 C-SH2 domain E139D = target: SHP2 C-SH2 domain E139D
[1] = target: SHP2 C-SH2 domain wild-type
SHP2 N-SH2 domain L43F = target: SHP2 N-SH2 domain L43F
SHP2 N-SH2 domain T42A = target: SHP2 N-SH2 domain T42A
SHP2 N-SH2 domain T52S = target: SHP2 N-SH2 domain T52S
[2] = target: SHP2 N-SH2 domain wild-type
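Also: displayed peptides selected on beads carrying the immobilized SH2 domain, with library peptides lacking any tyrosine serving as negative controls.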

| Binder | enrichment score (SHP2 C-SH2 domain E139D) | enrichment score [1] | enrichment score (SHP2 N-SH2 domain L43F) | enrichment score (SHP2 N-SH2 domain T42A) | enrichment score (SHP2 N-SH2 domain T52S) | enrichment score [2] |
| --- | --- | --- | --- | --- | --- | --- |
| EKEKKYMLPLD [DNM2_Y563] | inactive: 0.97 | inactive: 0.743 | inactive: 0.689 | inactive: 0.562 | inactive: 0.875 | inactive: 0.999 |
| GMEIVYVYVKK [DNAI2_Y5] | inactive: 1.99 | inactive: 2.15 | inactive: 1.84 | inactive: 1.59 | inactive: 1.81 | inactive: 1.95 |
| RKLASYRSCLL [DHX37_Y1080] | inactive: 0.747 | inactive: 0.868 | inactive: 0.581 | inactive: 0.764 | inactive: 0.829 | inactive: 0.689 |
| RLRIDYERVSQ [DSP_Y1542] | inactive: 1.34 | inactive: 1.51 | inactive: 1.52 | inactive: 1.33 | inactive: 1.21 | inactive: 1.55 |
| MKMISYETLIA [DOCK10_Y1350_T1347M] | inactive: 1.26 | inactive: 1.25 | inactive: 1.9 | active: 3.83 | inactive: 1.82 | inactive: 1.31 |
| GMSQAYSFSQR [DES_Y5_S7F] | inactive: 0.78 | inactive: 0.795 | inactive: 0.724 | inactive: 0.751 | inactive: 0.717 | inactive: 0.79 |
| KLASTYREAAT [DEAF1_Y483_H479L] | inactive: 0.648 | inactive: 0.61 | inactive: 0.717 | inactive: 0.376 | inactive: 0.665 | inactive: 0.635 |
| LSNPAYRLLLA [DDR1_Y513] | inactive: 0.745 | inactive: 0.643 | inactive: 0.894 | inactive: 0.7 | inactive: 0.961 | inactive: 0.774 |
| DRFANYIEKVR [DES_Y122] | inactive: 1.01 | inactive: 1.02 | inactive: 0.883 | inactive: 1.08 | inactive: 0.944 | inactive: 0.918 |
| LYSGDYYRIQG [DDR2_Y740] | inactive: 0.833 | inactive: 0.827 | inactive: 0.903 | inactive: 0.641 | inactive: 0.871 | inactive: 0.997 |
| LFSGDYFRIQG [DDR2_Y740_YF] | inactive: 1.5 | inactive: 1.24 | inactive: 1.38 | inactive: 1.1 | inactive: 1.08 | inactive: 1.27 |
| RPCVVYGGADI [DDX3X_Y301] | inactive: 0.916 | inactive: 0.776 |  | inactive: 0.722 | inactive: 0.606 | inactive: 0.867 |
| QGRQTYLPQPA [DDR2_Y813] | inactive: 0.708 | inactive: 0.673 | inactive: 0.755 | inactive: 0.608 | inactive: 0.801 | inactive: 1 |
| TQNGVYSAANF [DDX5_Y535_YF] | inactive: 0.693 | inactive: 0.801 | inactive: 0.728 | inactive: 0.695 | inactive: 0.74 | inactive: 0.817 |
| DNPAKYFILEN [DPP10_Y512_S517N] | inactive: 0.979 | inactive: 0.939 | inactive: 0.824 | inactive: 0.841 | inactive: 0.978 | inactive: 1.19 |
| VILENYGADID [DNAH5_Y596_L591V] | inactive: 0.851 | inactive: 0.641 | inactive: 0.832 | inactive: 0.797 | inactive: 1.08 | inactive: 0.836 |
| SEASGYQDNIA [DES_Y363] | inactive: 0.436 | inactive: 0.542 | inactive: 0.52 | inactive: 0.401 | inactive: 0.591 | inactive: 0.65 |
| VTNHIYTWVDP [DFNB31_Y234] | inactive: 1.57 | inactive: 1.34 | inactive: 1.25 | inactive: 1.61 | inactive: 1.56 | inactive: 1.33 |
| DQIDTYELSGA [DNM1_Y354_G359A] | inactive: 0.757 | inactive: 0.668 | inactive: 0.748 | inactive: 0.468 | inactive: 0.551 | inactive: 0.711 |

| Binder | enrichment score (SHP2 C-SH2 domain E139D) | enrichment score [1] | enrichment score (SHP2 N-SH2 domain L43F) | enrichment score (SHP2 N-SH2 domain T42A) | enrichment score (SHP2 N-SH2 domain T52S) | enrichment score [2] |
| --- | --- | --- | --- | --- | --- | --- |
| GIATGYLVLKE [DNMT3B_Y588] | inactive: 0.987 | inactive: 1.58 | inactive: 0.947 | active: 3.22 | inactive: 1.09 | inactive: 0.983 |
| DRFDNYIEKVR [DES_Y122_A120D] | inactive: 0.812 | inactive: 0.827 | inactive: 0.918 | inactive: 0.815 | inactive: 0.87 | inactive: 0.974 |
| TQNAVYSAANY [DDX5_Y535_G533A] | inactive: 0.681 | inactive: 0.714 | inactive: 0.695 | inactive: 0.599 | inactive: 0.513 | inactive: 0.682 |
| PLRPDYQEPSR [DDR2_Y481] | inactive: 0.849 | inactive: 0.995 | inactive: 0.816 | inactive: 0.701 | inactive: 1.02 | inactive: 1.2 |
| FFIMMYTGSNV [DNAJC13_Y1131] | inactive: 0.919 | inactive: 1.14 | inactive: 0.888 | inactive: 0.836 | inactive: 1.02 | inactive: 0.91 |
| GFPVHYTGVSN [DNMT3B_Y815_D817G] | inactive: 0.992 | inactive: 1.36 | inactive: 0.938 | inactive: 3.14 | inactive: 1.06 | inactive: 1.06 |
| MDQAEYQAKIR [DHX58_Y518] | inactive: 0.49 | inactive: 0.441 | inactive: 0.46 | inactive: 0.385 | inactive: 0.625 | inactive: 0.429 |
| EFLRNYFTDKA [DSG2_Y775] | inactive: 1.09 | inactive: 1.28 | inactive: 1.19 | inactive: 0.921 | inactive: 0.796 | inactive: 1.14 |
| KRTFEYEAEKN [DENND2B_Y396_D399E] | inactive: 0.364 | inactive: 0.381 | inactive: 0.41 | inactive: 0.496 | inactive: 0.472 | inactive: 0.513 |
| LRAGVYPEKDQ [DNM2_Y626] | inactive: 1.03 | inactive: 1.01 | inactive: 1.24 | inactive: 1.02 | inactive: 1.01 | inactive: 1.1 |
| GITTGYLVLKE [DNMT3B_Y588_A585T] | inactive: 0.989 | inactive: 1.13 | inactive: 0.86 | inactive: 2.91 | inactive: 0.86 | inactive: 1.01 |
| FSGDCYRIQGR [DDR2_Y741_Y740C_YF] | inactive: 0.829 | inactive: 0.834 | inactive: 0.865 | inactive: 0.667 | inactive: 0.593 | inactive: 1.12 |
| HICTAYELVLA [DHCR24_Y190] | inactive: 1.28 | inactive: 1.57 | inactive: 1.5 | inactive: 1.06 | inactive: 1.01 | inactive: 2.11 |
| SDIEEYVHRIG [DDX3X_Y525] | inactive: 0.766 | inactive: 0.768 |  | inactive: 0.649 | inactive: 0.697 | inactive: 0.786 |
| RTVPLYESPRK [DDB1_Y718] | inactive: 0.678 | inactive: 0.852 | inactive: 0.685 | inactive: 0.56 | inactive: 0.79 | inactive: 0.844 |
| RLPSGYGLAYR [DLK1_Y262] | inactive: 1.11 | inactive: 0.858 | inactive: 0.901 | inactive: 0.883 | inactive: 0.921 | inactive: 0.917 |
| QEMMEYRRQIQ [DES_Y324_H326R] | inactive: 1.03 | inactive: 0.752 | inactive: 0.66 | inactive: 0.724 | inactive: 0.765 | inactive: 0.909 |
| MKTISYETLIA [DOCK10_Y1350] | inactive: 1.15 | inactive: 1.19 | inactive: 1.42 | active: 3.36 | inactive: 1.35 | inactive: 1.29 |
